Results from the supplement of paper PMC9334596.
Where “and” joins values, the source holds several entries; their conditions need not be identical. Equal values may be shown once. In all, about 5,300 compounds were measured (“PER2::LUC luminescence relative to vehicle control”: median about 0.96, highest 2% from about 1.3 on). The list shows a part of the results.

System: mPer2Luc MEF
Test: PER2::LUC luminescence relative to vehicle control (fold of vehicle); higher = higher PER2::LUC reporter signal
Settings: 10 µM
Procedure, shortened: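 In 384-well plates, ~3000 mPer2Luc reporter mouse embryonic fibroblasts per well were cultured in DMEM with 10% FBS at 37 °C and 5% CO2 for 48 h before compounds from commercial libraries were added at 10 μM. ONE-Glo luciferase readings were taken 24 h and 30 h after treatment. Each value is PER2::LUC luminescence given as fold of vehicle control.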

| SMILES | PER2::LUC luminescence (time after treatment 24 h) | PER2::LUC luminescence (time after treatment 30 h) |
| --- | --- | --- |
| NC1CCN(O)C1=O (single isomer, unassigned; (-)) | 1.08 | 1.01 |
| Cc1cc(-n2cccc2)c(S(C)(=O)=O)cc1C(=O)N=C(N)N | 1.17 | 0.995 |
| C[C@]12CC[C@@H]3c4ccc(O)cc4CC[C@H]3[C@@H]1CCC2=O | 1.08 and 1.09 | 1.23 and 1.06 |
| CC(C)[C@H](NC(=O)[C@H](CC(=O)O)NC(=O)[C@H](CCCCN)NC(=O)[C@@H](N)CCCN=C(N)N)C(=O)N[C@@H](Cc1ccc(O)cc1)C(=O)O | 1.12 | 0.97 |
| CC1CN(S(=O)(=O)c2cccc3cnccc23)CCN1 (centres undefined) | 0.994 | 1.05 |
| CCOC(=O)C1=C[C@]2(CC)CCCN3CCc4c(n1c1ccccc41)[C@@H]32 | 1.03 and 1.04 | 0.999 and 0.966 |
| CN1CCC(COc2cnc(-c3cccc(Cn4nc(-c5cccc(C#N)c5)ccc4=O)c3)nc2)CC1 | 0.706 | 0.744 |
| Cc1cccc(CN2CCN(C(c3ccccc3)c3ccc(Cl)cc3)CC2)c1 (centres undefined) | 1.07 and 0.753 | 0.997 and 0.864 |
| CCOC(OCC)P(=O)(O)CCCNCc1ccc(Cl)c(Cl)c1 | 0.984 | 0.976 |
| O=C(O)CCC(=O)Nc1ccc(S(=O)(=O)Nc2nccs2)cc1 | 0.666 | 0.939 |
| O=C(O)CCn1c2c(c3ccccc31)C[C@H](NS(=O)(=O)c1ccc(F)cc1)CC2 | 1.08 | 0.943 |
| COc1cnc(NS(=O)(=O)c2ccc(N)cc2)nc1 | 0.926 | 1 |
| CC(C)Cc1ccc(C(C)C(=O)O)cc1 (racemic) | 1.12 and 0.926 | 0.938 and 0.803 |
| O=NN(CCCl)C(=O)NC1CCCCC1 | 0.824 | 0.938 |
| CNCCC(Oc1ccccc1OC)c1ccccc1 (centres undefined) | 1.01 | 0.955 |
| CCCCC(C)(O)C/C=C/[C@H]1[C@H](O)CC(=O)[C@@H]1CCCCCCC(=O)OC (mixture of isomers) | 1.04 | 1.02 |
| COc1ccccc1O | 0.97 | 0.878 |
| CC1CNCCN1S(=O)(=O)c1cccc2cnccc12 (centres undefined) | 1.13 | 0.909 |
| C/C=N/N(C)C=O | 1.03 | 0.928 |
| Cn1c(=O)cc(N2CCC[C@@H](N)C2)n(Cc2ccccc2C#N)c1=O | 0.943 | 0.98 |
| CCOC(=O)CCCCCCCCCCCN(C)C(=O)CO[C@H](C)[C@@H](C)OCC(=O)N(C)CCCCCCCCCCCC(=O)OCC | 1.2 | 1.08 |

| SMILES | PER2::LUC luminescence (time after treatment 24 h) | PER2::LUC luminescence (time after treatment 30 h) |
| --- | --- | --- |
| CCOc1ccc(-c2nc(-c3cccc4c3CCC4NCCO)no2)cc1OCC (centres undefined) | 0.853 | 0.942 |
| O=c1c2cc(O)c(O)cc2oc2cc(O)c([C@@H]3O[C@H](CO)[C@@H](O)[C@H](O)[C@H]3O)c(O)c12 | 1.05 | 0.993 |
| C=C1C[C@]23C[C@@]1(O)CC[C@H]2[C@@]12C=C[C@H](O)[C@@](C)(C(=O)O1)[C@H]2[C@@H]3C(=O)O | 1.07 and 0.983 | 1.07 and 0.929 |
| Cc1nnc(C(C)C)n1C1C[C@H]2CC[C@@H](C1)N2CC[C@H](NC(=O)C1CCC(F)(F)CC1)c1ccccc1 (stereo in doubt) | 0.968 | 0.934 |
| CCOc1cc(C(C)(C)C)ccc1C1=N[C@@](C)(c2ccc(Cl)cc2)[C@@](C)(c2ccc(Cl)cc2)N1C(=O)N1CCN(CC(=O)N2CCOCC2)CC1 | 0.78 | 0.651 |
| COc1ccc(-c2cc(=O)c3c(O)cc(O[C@@H]4O[C@H](CO[C@@H]5O[C@@H](C)[C@H](O)[C@@H](O)[C@H]5O)[C@@H](O)[C@H](O)[C@H]4O)cc3o2)cc1O | 0.877 | 1.25 |
| COc1cc(Nc2ncc(F)c(Nc3ccc4c(n3)N(COP(=O)(O)O)C(=O)C(C)(C)O4)n2)cc(OC)c1OC | 0.591 and 0.225 | 0.424 and 0.163 |
| N#Cc1cc2[nH]c(=O)c(=O)[nH]c2cc1[N+](=O)[O-] | 0.979 | 0.918 |
| CC1(C)[C@H]2CC[C@]1(CS(=O)(=O)O)C(=O)C2=Cc1ccc(C=C2C(=O)[C@@]3(CS(=O)(=O)O)CC[C@@H]2C3(C)C)cc1 | 0.559 | 1.03 |
| NC(=O)NC(=O)Cc1ccccc1 | 0.87 and 0.95 | 1.19 and 0.957 |
| CN1CC2c3ccccc3Oc3ccc(Cl)cc3C2C1 (centres undefined) | 0.815 and 0.759 and 0.706 | 0.713 and 0.621 and 0.662 |
| COc1ccc(C(=O)c2ccc(C)cc2)c(O)c1 | 1.02 and 1.29 | 1.55 and 1.57 |
| CN1[C@@H](CC(=O)c2ccccc2)CCC[C@H]1C[C@H](O)c1ccccc1 | 0.975 and 0.85 and 0.873 | 0.939 and 0.881 and 0.759 |
| CCC(CC)CC1(C(=O)Nc2ccccc2SC(=O)C(C)C)CCCCC1 | 1.1 | 0.999 |
| OC[C@@H](O)[C@@H](O[C@@H]1O[C@H](CO)[C@H](O)[C@H](O)[C@H]1O)[C@H](O)[C@@H](O)CO | 1.02 and 0.968 and 0.877 | 1.01 and 1.07 and 0.932 |
| c1ccc2[nH]c(-c3cscn3)nc2c1 | 1.41 | 1.35 |
| Cn1cc(-c2ccc3nnc(C(F)(F)c4ccc5ncccc5c4)n3n2)cn1 | 0.849 | 0.896 |
| CC(=O)C(C)=O | 1.03 | 0.918 |
| COc1cc(C(O)C(=O)O)ccc1O (racemic) | 0.883 | 0.755 |
| COc1ccc(CNC(=O)c2cc(-c3cncc(C)c3)ncc2-c2nccs2)nc1OC | 0.967 | 0.903 |
| CC(C)(C)NC(=O)N[C@H](C(=O)N1C[C@H]2[C@@H]([C@H]1C(=O)NC(CC1CCC1)C(=O)C(N)=O)C2(C)C)C(C)(C)C (some centres undefined) | 0.933 | 0.933 |
